Results: the supplement of paper PMC11417369
± gives the standard deviation of the averaged measurements. The list shows a part of the results.

system: PfAP2-LT AP2 domain (GST-tagged); assay: gcPBM binding intensity (ln(normalized median fluorescence intensity)); higher = stronger DNA binding
Outline: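 Probes on an Agilent 4 × 180k array were primer-extended, double-stranded and 36 bp long, taken from intergenic genomic regions, with negative controls added. GST-tagged P. falciparum DNA-binding domains from E. coli, about 25 μg on average, were applied to the array for 1 h in 1× PBS containing 1% milk, 0.2 mg/ml BSA, 0.5% salmon testes DNA and 0.03% Triton X-100. Binding intensity, obtained after Alexa488 anti-GST antibody detection and a 488 nm scan, is the highest Masliner-normalised natural-log median intensity across replicate spots of either probe orientation.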

Sequence	gcPBM binding intensity (ln)
AGCAAATACAAACACACACACACATATACATATATA [CACACA_site3497]	10.1 ± 0.26
TAATTACAAAAACATACACACAAAAAAAAAAAAAAA [CACACA_site3782]	8.87 ± 0.45
ATTCTAAATATCAGTGCACACATTTCTACGCAAAGT [CACACA_site474]	9.12 ± 0.42
ACATACATATATATACGTACATATATATTTATATAT [XGTACX_site5799]	9.07 ± 0.35
AAAAAACAGACATACACACACACACCCATATATATA [CACACA_site3392]	10.4 ± 0.21
TTTGATAAAATTGATATCCTATAATTATATAAATAA [GTGCAC_negctrl_site317]	8.17 ± 0.4
GATAAAATAAAAGTGGGTACTTAAATATATATATAA [XGTACX_site8457]	8.69 ± 0.62
TACAATTTGATATATACACACAAATAAATTATGCTT [CACACA_site6534]	8.76 ± 0.42
AAAAGTACAATATATATGTATGTGTATAGAATGGTT [TGCATGCA_negctrl_site76]	9.19 ± 0.39
ATAATATTATACTTTGCACACATCTGAAATGACATA [CACACA_site3952]	9.12 ± 0.3
AAAGAATTTAAATATTGTACGCAATATATAAAAAAA [XGTACX_site7616]	8.57 ± 0.54
TAATATTATTATTTTACACACTTTTTTCCTTTTATC [CACACA_site2457]	8.98 ± 0.47
TTCTATATATATATAGACAAACGATAAAATAAAAAA [GTGCAC_negctrl_site142]	8.48 ± 0.46
TAATAATAGTGAGAGTGTACTTTAAATAAAATATAT [XGTACX_site2850]	8.76 ± 0.56
GATGTTCATCACTACACACACAAAGAAATATAAATA [CACACA_site7294]	9.22 ± 0.38
TACCCAAAGTTACATACACACTAATATTTACACCAT [CACACA_site4709]	9.09 ± 0.29
ATATGAAGTTATATAGTGCACATGTACAACCAAATC [GTGCAC_site9974]	9.19 ± 0.35
AGAAAAGAAATTAGTTGTACTCTGATGAATTATCCT [XGTACX_site6284]	8.62 ± 0.54
TATTTATTATATAAATGTACATAATATATGTATGTC [XGTACX_site2815]	8.77 ± 0.48

Sequence	gcPBM binding intensity (ln)
AAAAAAAAAAAAAGTACACACTTTTGCGTACAAGTA [CACACA_site5672]	8.79 ± 0.47
TATATCATAAAAAATTGTACATATATATATTATATA [XGTACX_site6726]	8.44 ± 0.41
TGATGGGACATAAATATTGAGATGATCATAAGATAA [TGCATGCA_negctrl_site276]	8.89 ± 0.6
AAAGATAATATATGCACACATATAAATATATAAATA [CACACA_site3477]	9.07 ± 0.43
TGACTTTTTTTTTTTTTTTTTTTTTTTTATCTTTTT [CACACA_negctrl_site481]	8.49 ± 0.58
TTATGATTATAACGTTTTGACATTAGGCATATATAT [CACACA_negctrl_site1396]	8.72 ± 0.47
CAGTTATTTTAATGTGGTACACAATTTTAAAATTAT [XGTACX_site8571]	8.53 ± 0.39
AAGAAAAAAAAAAAAAAAAAAAAAAAAAATTTATGA [TGCATGCA_negctrl_site294]	8.18 ± 0.64
AAATATAATTTGCGATGTACACATATATATTTATTT [XGTACX_site1568]	8.87 ± 0.41
TGAAATGATATATAAACACACATATATAAATATGTA [CACACA_site7616]	8.88 ± 0.45
TACCTATACCTATACACACACACACGGAAATAAATA [CACACA_site6750]	9.84 ± 0.32
ATATAAAATGAACATAGTACTTTTTATATATTTTAA [XGTACX_site7461]	8.32 ± 0.47
AATTTTATAAAAAGTAGTACATATCAAACACCTTGA [XGTACX_site2297]	8.71 ± 0.38
AATGTGCCCACGCGTACACACAAAAAAAGAAAAAAA [CACACA_site2003]	9.02 ± 0.59
TTTTAAAAAAAAAAAAAAAAAATTAAAATAATTCAA [TGCATGCA_negctrl_site69]	7.83 ± 0.47
ATAAAATAATTAATGGGTACATAATTAAATAAAGAG [XGTACX_site3309]	8.86 ± 0.61
CATACATAGAAACACACACACACACCCACCCACAAA [CACACA_site494]	10.19 ± 0.028
ATTCTATATTTAAATGCATGCACTTTCTATTTTTTT [TGCATGCA_site435]	9.38 ± 0.47
TTTAATTTGTTATACACACACAAAAAAAATTATAAA [CACACA_site3937]	8.93 ± 0.46

Sequence	gcPBM binding intensity (ln)
GCTAAAAGTATATGCACACACATATAGATGCACATA [CACACA_site6868]	9.34 ± 0.33
TTTTATTTATCTAATTGTACTCATTCTTTTTTGATG [XGTACX_site2876]	8.72 ± 0.59
GACACTTTGAAGGGTACATGCAGAAAAAAAAAAAAA [TGCATGCA_site89]	8.7 ± 0.55
AATACAATTTTTAACACACACACAATAATACAGATA [CACACA_site4823]	9.61 ± 0.21
GTGTAATTTATTGTGTTGCACTTTTTTTTTTTTTTT [GTGCAC_site9644]	8.88 ± 0.49
AAGATAGACTCATATGCATGCATTCACATACCAACA [TGCATGCA_site179]	9.07 ± 0.26
TTAATATAGGAATATGCACACATATATACATACATA [CACACA_site8432]	9.01 ± 0.38
GGATAAGATGTATATACACACAATTTAAAAAAATAA [CACACA_site910]	9.04 ± 0.53
CATACACAAGAAAATTCACACACACCCATATATATA [CACACA_site9288]	9.87 ± 0.23
TCTTACAAAAAACAAACAGAGAAAAATATAAGGAAA [XGTACX_negctrl_site520]	8.69 ± 0.36
TTTTTTTTTTTGTATCGTACATTTATAATGTTTATA [XGTACX_site6804]	8.73 ± 0.52
TTTTTTTCATATAACACACACACAAAAATAATGTGG [CACACA_site3688]	9.32 ± 0.3
TAAACATTGTAAAGGAGTACAAAATTTTTTTTATGA [XGTACX_site7757]	8.49 ± 0.54
AATAATAAAAAATACACACACATATATATATATTAC [CACACA_site3464]	9.47 ± 0.42
ATATATATTTATTTATGTACGAATAAATTTACGAAT [XGTACX_site5190]	8.56 ± 0.4
AATATCATTATATAAGTGCATTTTTTAAAAGATAAA [GTGCAC_site9479]	8.47 ± 0.45
TTAATAGGTCGAAGTAGTACATAAAAATATATATAT [XGTACX_site5960]	8.86 ± 0.42
AAGTTAACAATATGAAGTACAAATGAAAAAAAAAAA [XGTACX_site666]	8.87 ± 0.45
